# The campaign covered roughly 370,000 compounds. About 150 (0.041%) were called active. Inconclusive means that the source gave no clear call. Such entries were picked first, then a sample of the others. Calls follow the shape of the dose curve; as a rule, active = well fitted inhibition curve with a large enough effect; inconclusive = small, poorly fitted or top-dose-only effect; inactive = flat fitted curve, though single readings scatter. Potencies of inconclusive entries are left out as doubtful fits.
# Target: Beta-lactamase (Escherichia coli (strain K12)) (UniProt P00811)
# Chain of UniProt P00811 (P00811 whole entry, looked up): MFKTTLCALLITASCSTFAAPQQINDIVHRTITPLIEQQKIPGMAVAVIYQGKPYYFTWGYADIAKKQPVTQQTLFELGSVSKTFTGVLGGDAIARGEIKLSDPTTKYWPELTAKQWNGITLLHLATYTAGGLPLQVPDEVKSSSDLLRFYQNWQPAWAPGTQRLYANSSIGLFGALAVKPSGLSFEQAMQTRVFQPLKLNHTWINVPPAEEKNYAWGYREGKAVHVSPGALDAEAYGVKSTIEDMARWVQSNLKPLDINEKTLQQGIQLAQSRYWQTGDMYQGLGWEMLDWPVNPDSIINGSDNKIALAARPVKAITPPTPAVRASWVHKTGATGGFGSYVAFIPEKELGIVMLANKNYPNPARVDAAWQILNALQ
# Test: qHTS Inhibitors of AmpC Beta-Lactamase (assay with detergent); also: nearly all actives have a fitted effect of over 25% in size
# Conditions: AmpC hydrolysis of nitrocefin, absorbance 480 nm, 0.01% Triton; series mostly up to 114 µM
# Outline: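 20 mM phosphate pH 7.0 + 0.01% (detergent screen) or 0.0001% Triton X-100; 5.3 nM AmpC reagent; cpd preinc 15 min RT; nitrocefin (800 uM stock) to start; A480 q20 s × 4 min; Activity was normalised to no-enzyme and no-compound control wells.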
# Potency is read from the fitted curve at half-maximal effect; tags tell the direction and shape of the fitted curve.
row,SMILES,Potency
1,Cc1ccc(N/N=C2\CS(=O)(=O)N(C)c3ccsc32)cc1,inactive
2,CCN(CCCNS(=O)(=O)c1ccc2c(c1)oc(=O)n2C)c1cccc(C)c1,"inconclusive [inhibitor, full curve, poor fit]"
3,CCc1cccc(C)c1NC(=S)NCc1ccccc1,"inconclusive [inhibitor, full curve, poor fit]"
4,Cc1cccc(COc2ccc(/C=C3/C(=O)N(C)C(=S)N3C)cc2)c1,"inconclusive [inhibitor, full curve]"
5,CC(C)(C)[C@@H]1CCC(=O)N(CC[C@H](Sc2ccccc2)c2ccccc2)CC1,"inconclusive [inhibitor, full curve, poor fit]"
6,Cc1nc2ccccc2n1CC(=O)OCC(=O)Nc1ccc2c(c1)OCCO2,"inconclusive [inhibitor, full curve]"
7,Cc1ccc(C(Nc2ccccn2)c2ccc3cccnc3c2O)cc1 (stereo unspecified),inactive
8,CS(=O)(=O)Nc1ccc(C(=O)Nc2ccccc2C(=O)N2CCCC2)cc1,inactive
9,CCCCN1C(=O)C(O)=C(C(C)=O)C1c1ccccc1[N+](=O)[O-] (stereo unspecified),inactive
10,Cn1nnc2cc(C(=O)NC3CCCCC3)ccc21,"inconclusive [inhibitor, full curve, poor fit]"
11,O=C(Nc1nc2ccccc2s1)C1c2ccccc2Oc2ccccc21,"inconclusive [inhibitor, full curve]"
12,Oc1cc2c(cc1O)CN(C(=S)NCCc1ccc(Cl)cc1)CCC2,"inconclusive [inhibitor, full curve]"
13,O=C(CN(c1cccc(C(F)(F)F)c1)S(=O)(=O)c1ccc(Cl)c([N+](=O)[O-])c1)NCc1ccccc1,"inconclusive [inhibitor, single point]"
14,O=C(NCc1ccc(F)cc1)C1CCCN(S(=O)(=O)c2ccc(Br)s2)C1 (stereo unspecified),"inconclusive [inhibitor, partial curve, poor fit]"
15,O=S(=O)(c1ccc(C2CCCCC2)cc1)N1CCOCC1,inactive
16,CCCCCn1c(=O)[nH]c2cc(C(=O)N3CCN(c4ccccc4)CC3)ccc2c1=O,"inconclusive [inhibitor, full curve, poor fit]"
17,O=C(COC(=O)c1ccc(Cl)c(S(=O)(=O)N2CCN(c3ccc(F)cc3)CC2)c1)Nc1cccc(Cl)c1,"inconclusive [inhibitor, single point]"
18,COc1ccc(Oc2cc(F)nc(N)n2)cc1,"inconclusive [inhibitor, partial curve, poor fit]"
19,Nc1c(C(=O)N2CCCCC2)sc(=S)n1-c1ccccc1,"inconclusive [inhibitor, partial curve, poor fit]"
20,Cc1noc(C)c1/C=N/Nc1ccccn1,inactive
21,O=C(CSc1nnc(Cc2cccs2)n1C1CCCCC1)N1CCN(C(=O)c2ccco2)CC1,"inconclusive [inhibitor, single point]"
22,C=CCOc1ccc(C(=O)c2ccccc2)c(OCC(=O)NC2(C#N)CCCC2)c1,"inconclusive [inhibitor, partial curve]"

row,SMILES,Potency
1,CCC(NC(=O)C(C)NC)C(=O)N1CCCC1C(=O)NC1CCCc2ccccc21 (stereo unspecified),inactive
2,CC(OC(=O)c1ccc(-c2ccc([N+](=O)[O-])cc2)o1)C(=O)NC(N)=O (stereo unspecified),"inconclusive [inhibitor, single point]"
3,CC(=O)c1ccc(N2CCN(C(=O)CNS(=O)(=O)c3ccc4c(c3)OCCCO4)CC2)c(F)c1,"inconclusive [inhibitor, partial curve]"
4,CC1CCCN(C(=O)CSc2nnc(-c3ccc(O)cc3)o2)C1 (stereo unspecified),inactive
5,Nc1nc(SCC(=O)c2ccc(Oc3ccccc3)cc2)n[nH]1,inactive
6,COc1ccc(NC(=O)NNC(=O)COc2ccc3cc(Br)ccc3c2)cc1,"inconclusive [inhibitor, full curve]"
7,O=[N+]([O-])c1ccc(O)c(N=Cc2sc3ccccc3c2O)c1,"inconclusive [inhibitor, partial curve, poor fit]"
8,CCCc1cc(N2CCN(c3ccccn3)CC2)n2nc(C)c(-c3ccccc3)c2n1,"inconclusive [inhibitor, full curve]"
9,CCC1(c2ccccc2)NC(=S)N(c2ccc(C)cc2)N1 (stereo unspecified),"inconclusive [inhibitor, single point]"
10,O=C(CN1CCN(S(=O)(=O)c2ccc(Br)cc2)CC1)N/N=C/c1cccs1,"inconclusive [inhibitor, partial curve]"
11,CCN(CC(=O)NCc1cccs1)C(=O)/C=C/c1cccc(Br)c1,"inconclusive [inhibitor, single point]"
12,CC12CCC(C(=O)N3CCN(c4ccccc4)CC3)(CC1=O)C2(C)C (stereo unspecified),"inconclusive [inhibitor, full curve, poor fit]"
13,COc1ccc(C)cc1NC(=O)CN1C(=O)COc2ccc(C)cc21,"inconclusive [inhibitor, full curve, poor fit]"
14,COc1cc(S(=O)(=O)NC2CC(C)(C)NC(C)(C)C2)c(OC)cc1Cl,"inconclusive [inhibitor, full curve, poor fit]"
15,COC(=O)c1ccc(CNC(=O)c2ccc3c(c2)S(=O)(=O)N=C2CCCCCN23)cc1,"inconclusive [inhibitor, partial curve, poor fit]"
16,O=C(Nc1ccc2c(c1)CCC2)c1ncoc1-c1ccccc1F,"inconclusive [inhibitor, full curve, poor fit]"
17,CC1CCN(S(=O)(=O)c2ccc3c(c2)c(=O)c(C(=O)NCc2ccccc2Cl)cn3C)CC1,"inconclusive [inhibitor, full curve]"
18,Cc1ccc(NC(=O)CN(C)Cc2cccs2)cc1Cl,"inconclusive [inhibitor, partial curve]"
19,CCCCC(=O)NC(c1cccs1)c1cc(Cl)c2cccnc2c1O (stereo unspecified),inactive
20,COc1ccccc1N(CC(=O)Nc1ccc(F)c(F)c1)S(C)(=O)=O,"inconclusive [inhibitor, full curve]"
21,O=C(Nn1cnnc1)c1csc2ccccc12,"inconclusive [inhibitor, single point]"
22,O=C(Nc1ccccn1)C1CCN(S(=O)(=O)c2cccs2)CC1,"inconclusive [inhibitor, partial curve, poor fit]"

row,SMILES,Potency
1,CCOC(=O)N1CCN(C(=O)C(=O)NNC(=O)COc2ccc(Cl)c(C)c2)CC1,"inconclusive [inhibitor, full curve, poor fit]"
2,COc1ccccc1NC(=O)COc1cccc(-n2cnnn2)c1,"inconclusive [inhibitor, partial curve, poor fit]"
3,COc1ncnc2c1NC(=O)CS2,"inconclusive [inhibitor, partial curve, poor fit]"
4,CCCC(=O)Nc1nnc(SCC(=O)N2CCCCC2)s1,inactive
5,CNC(=S)N/N=C1\C(=O)c2cccc3cccc1c23,"inconclusive [inhibitor, partial curve, poor fit]"
6,Cc1ccc(-c2n[nH]c(=S)n2/N=C/c2ccc(C(=O)O)cc2)cc1,"inconclusive [inhibitor, partial curve]"
7,CCCCN(C)CCCNC(=O)c1ccc2nc(N3CCCCC3)sc2c1,inactive
8,Cc1[nH]c2ccccc2c1-c1nc2ccccc2[nH]1,inactive
9,CN(Cc1cnn(C)c1)C(=O)c1cc2ccccc2oc1=O,"inconclusive [inhibitor, partial curve, poor fit]"
10,CN(C)c1ccc(/C=C/c2nc3ccccc3c(=O)[nH]2)cc1,"inconclusive [inhibitor, full curve, poor fit]"
11,O=c1c2ccccc2nnn1CSc1nnc2ccccn12,"inconclusive [inhibitor, partial curve, poor fit]"
12,O=C(c1cc([N+](=O)[O-])ccc1Cl)N1CCN(c2ccccc2)CC1,inactive
13,CCN(CC)C(=O)c1ccc(C(=O)Nc2ccc(F)cc2)cc1,"inconclusive [inhibitor, full curve, poor fit]"
14,CCOc1cc(CNCc2cccs2)cc(Br)c1OCC,"inconclusive [inhibitor, full curve, poor fit]"
15,Cc1cc(NC(=O)COC(=O)c2ccccc2[N+](=O)[O-])no1,inactive
16,O=C(c1ccc(S(=O)(=O)Nc2ccccc2F)cc1)N1CCN(c2ccccc2O)CC1,"inconclusive [inhibitor, full curve, poor fit]"
17,NC(=O)Cn1cc(/C=N\NS(=O)(=O)c2ccccc2)c2ccccc21,"inconclusive [inhibitor, full curve, poor fit]"
18,O=C(COc1ccccc1Cl)Nc1nc2c(s1)CCCC2,inactive
19,N#C/C(=C(/O)c1ccc(S(=O)(=O)N(CCCl)CCCl)cc1)c1nc2ccccc2[nH]1,"inconclusive [inhibitor, full curve, poor fit]"
20,COc1ccc(NC(=O)C2Cc3ccccc3CN2C(=O)c2ccco2)cc1 (stereo unspecified),inactive
21,C=CCN1C(=O)c2ccc(C(=O)N3CCN(S(=O)(=O)c4ccc(C(C)C)cc4)CC3)cc2C1=O,"inconclusive [inhibitor, full curve, poor fit]"
22,O=C(Nc1ccc2c(c1)OCCO2)c1oc2ccccc2c1NC(=O)C1CC1,inactive
